T1: human IL-2Rα (CD25), recombinant, biotinylated (human, UniProt P01589 22-213, limits assumed, biotinylated (site not stated))
T1 construct: also called human CD25 (IL-2Rα) receptor
T1 sequence (looked up): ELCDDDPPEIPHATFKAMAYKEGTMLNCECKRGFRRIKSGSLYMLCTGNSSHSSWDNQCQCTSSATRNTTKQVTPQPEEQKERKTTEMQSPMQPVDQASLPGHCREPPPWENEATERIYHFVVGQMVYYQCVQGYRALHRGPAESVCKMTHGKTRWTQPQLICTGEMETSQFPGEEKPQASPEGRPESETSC

T2: human IL-2Rβ (CD122), recombinant, biotinylated (human, UniProt P14784 27-239, limits assumed, biotinylated (site not stated))
T2 sequence (looked up): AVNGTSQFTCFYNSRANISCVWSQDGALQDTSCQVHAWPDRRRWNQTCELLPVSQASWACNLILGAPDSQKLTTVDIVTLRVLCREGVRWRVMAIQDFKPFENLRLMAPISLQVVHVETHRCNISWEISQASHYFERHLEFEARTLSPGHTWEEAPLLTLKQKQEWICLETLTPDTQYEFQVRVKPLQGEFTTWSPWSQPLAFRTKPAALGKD

B1: IgG fusion IL-2 mutein L12I (other)
chain: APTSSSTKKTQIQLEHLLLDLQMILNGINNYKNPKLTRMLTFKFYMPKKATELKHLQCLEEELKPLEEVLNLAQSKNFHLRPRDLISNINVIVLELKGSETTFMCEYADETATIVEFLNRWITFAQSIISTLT
B2: IgG fusion IL-2 mutein E15T (other)
chain: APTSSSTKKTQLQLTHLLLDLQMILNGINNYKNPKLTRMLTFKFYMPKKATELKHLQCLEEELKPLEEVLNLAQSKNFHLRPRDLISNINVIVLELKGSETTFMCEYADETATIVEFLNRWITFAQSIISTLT
B3: IgG fusion IL-2 mutein L19I (other)
chain: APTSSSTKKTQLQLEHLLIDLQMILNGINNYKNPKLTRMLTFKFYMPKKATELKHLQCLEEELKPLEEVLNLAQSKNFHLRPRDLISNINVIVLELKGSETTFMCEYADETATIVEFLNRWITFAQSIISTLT
B4: IgG fusion IL-2 mutein L72F (other)
chain: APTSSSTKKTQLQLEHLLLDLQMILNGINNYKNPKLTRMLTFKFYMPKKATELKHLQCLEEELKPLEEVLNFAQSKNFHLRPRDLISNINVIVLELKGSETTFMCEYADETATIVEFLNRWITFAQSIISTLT
B5: IgG fusion IL-2 mutein P65K (other)
chain: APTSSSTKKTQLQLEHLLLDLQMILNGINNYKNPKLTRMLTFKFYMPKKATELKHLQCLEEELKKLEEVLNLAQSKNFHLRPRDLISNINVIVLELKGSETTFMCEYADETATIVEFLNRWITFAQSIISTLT
B6: IgG fusion IL-2 mutein F42M (other)
chain: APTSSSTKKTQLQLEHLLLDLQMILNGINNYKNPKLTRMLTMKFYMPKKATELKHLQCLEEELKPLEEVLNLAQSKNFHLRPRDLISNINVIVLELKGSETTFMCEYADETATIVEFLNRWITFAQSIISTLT
B7: IgG fusion IL-2 mutein T111M (other)
chain: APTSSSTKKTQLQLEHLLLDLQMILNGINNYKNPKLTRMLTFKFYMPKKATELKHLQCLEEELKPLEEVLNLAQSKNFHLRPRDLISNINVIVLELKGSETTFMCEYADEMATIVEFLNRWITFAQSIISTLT
B8: IgG fusion IL-2 mutein K35T (other)
chain: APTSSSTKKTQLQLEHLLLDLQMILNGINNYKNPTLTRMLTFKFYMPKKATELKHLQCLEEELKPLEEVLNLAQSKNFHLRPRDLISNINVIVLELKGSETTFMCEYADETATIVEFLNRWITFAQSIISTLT
B9: IgG fusion IL-2 mutein T111Q (other)
chain: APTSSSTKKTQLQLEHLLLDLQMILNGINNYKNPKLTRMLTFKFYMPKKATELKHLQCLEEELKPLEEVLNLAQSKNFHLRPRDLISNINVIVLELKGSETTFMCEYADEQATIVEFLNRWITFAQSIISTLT
B10: IgG fusion IL-2 mutein E68L (other)
chain: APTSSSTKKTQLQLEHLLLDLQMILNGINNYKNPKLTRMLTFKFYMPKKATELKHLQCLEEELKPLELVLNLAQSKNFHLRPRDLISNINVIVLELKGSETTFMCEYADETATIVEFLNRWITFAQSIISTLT
B11: IgG fusion IL-2 mutein T111S (other)
chain: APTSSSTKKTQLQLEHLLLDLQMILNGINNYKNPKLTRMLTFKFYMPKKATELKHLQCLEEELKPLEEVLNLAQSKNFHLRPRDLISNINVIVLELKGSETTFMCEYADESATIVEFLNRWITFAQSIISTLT
B12: IgG fusion IL-2 mutein E68R (other)
chain: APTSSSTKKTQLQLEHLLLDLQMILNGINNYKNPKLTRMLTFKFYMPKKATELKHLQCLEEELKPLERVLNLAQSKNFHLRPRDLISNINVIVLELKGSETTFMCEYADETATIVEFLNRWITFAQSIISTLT
B13: IgG fusion IL-2 mutein D84E (other)
chain: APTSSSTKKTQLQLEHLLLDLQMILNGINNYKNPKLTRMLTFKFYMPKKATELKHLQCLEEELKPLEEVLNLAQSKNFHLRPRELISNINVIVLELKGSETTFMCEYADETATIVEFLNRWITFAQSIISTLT
B14: IgG fusion IL-2 mutein K48S (other)
chain: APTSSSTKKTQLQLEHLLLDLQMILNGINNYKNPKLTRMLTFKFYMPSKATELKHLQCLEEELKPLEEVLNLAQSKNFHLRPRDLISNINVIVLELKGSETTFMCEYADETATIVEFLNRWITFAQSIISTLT
B15: IgG fusion IL-2 mutein D84S (other)
chain: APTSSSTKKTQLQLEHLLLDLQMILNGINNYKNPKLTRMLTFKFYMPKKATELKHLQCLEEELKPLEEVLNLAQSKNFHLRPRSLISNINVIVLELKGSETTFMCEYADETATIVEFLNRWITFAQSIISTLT
B16: IgG fusion IL-2 mutein I92F (other)
chain: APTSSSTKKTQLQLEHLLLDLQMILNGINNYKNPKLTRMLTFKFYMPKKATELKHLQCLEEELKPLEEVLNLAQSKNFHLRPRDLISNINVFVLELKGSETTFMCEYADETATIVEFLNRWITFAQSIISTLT
B17: IgG fusion IL-2 mutein M23I (other)
chain: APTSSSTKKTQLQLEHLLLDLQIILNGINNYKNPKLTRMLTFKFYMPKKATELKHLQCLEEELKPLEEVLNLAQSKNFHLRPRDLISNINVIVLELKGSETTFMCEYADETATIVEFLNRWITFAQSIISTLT
B18: IgG fusion IL-2 mutein H16Y (other)
chain: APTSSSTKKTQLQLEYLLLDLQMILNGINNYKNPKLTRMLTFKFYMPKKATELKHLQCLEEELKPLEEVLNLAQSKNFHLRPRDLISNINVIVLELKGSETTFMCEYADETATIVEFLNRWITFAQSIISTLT

These binders were tested against T1, human IL-2Rα (CD25), recombinant, … (assay: BLI).

| Kd [nM] | koff [s⁻¹] | kon [M⁻¹ s⁻¹] | Binder |
| --- | --- | --- | --- |
| 22.7 | 0.0215 | 944000 | B1 |
| 10 | 0.0171 | 1.71e+06 | B2 |
| 34.1 | 0.0226 | 664000 | B3 |
| 33.2 | 0.0166 | 499000 | B4 |
| 9.08 | 0.00127 | 140000 | B5 |
| 26.3 | 0.0219 | 834000 | B6 |
| 10.5 | 0.00662 | 631000 | B7 |
| 39.4 | 0.0389 | 988000 | B8 |
| 25.7 | 0.0352 | 1.37e+06 | B9 |
| 27 | 0.0107 | 397000 | B10 |
| 47.3 | 0.0288 | 610000 | B11 |
| 70.9 | 0.0175 | 247000 | B12 |
| 16.1 | 0.0169 | 1.05e+06 | B13 |
| 63.4 | 0.0261 | 412000 | B14 |
| 11.6 | 0.0131 | 1.13e+06 | B15 |
| 35.9 | 0.0168 | 467000 | B16 |
| 19.6 | 0.0154 | 786000 | B17 |
| 55 | 0.0269 | 489000 | B18 |

Each binder was assayed against T2, human IL-2Rβ (CD122), recombinant, … (assay: BLI).

| Kd [nM] | koff [s⁻¹] | kon [M⁻¹ s⁻¹] | Binder |
| --- | --- | --- | --- |
| 307 | 0.109 | 356000 | B1 |
| 220 | 0.154 | 699000 | B2 |
| 232 | 0.559 | 2.41e+06 | B3 |
| 357 | 0.502 | 1.4e+06 | B4 |
| 12500 | 1.62 | 129000 | B5 |
| 228 | 0.276 | 1.21e+06 | B6 |
| 2090 | 0.785 | 376000 | B7 |
| 464 | 0.311 | 669000 | B8 |
| 74.1 | 0.0361 | 486000 | B9 |
| 113000 | – | 5.22e+06 | B10 |
| 199 | 0.0811 | 407000 | B11 |
| 3280 | 2.46 | 751000 | B12 |
| 173 | 7.23 | 4.19e+07 | B13 |
| 1740 | 1.01 | 581000 | B14 |

From patent US20230340054A1 (published 2023)
